Results reported in PubChem BioAssay AID588855 (National Center for Advancing Translational Sciences (NCATS), 2011).
In all, about 410,000 compounds went through this assay and about 5,000 (1.2%) were called active. The inconclusive results got no clear call from the source; some entries with a clear call stand among them for comparison. The call rests on the fitted dose curve; in most records, active means well fitted inhibition curve with a large enough effect; inconclusive means small, poorly fitted or top-dose-only effect; inactive means no such curve, though single readings can be large or run the other way. Potencies of inconclusive entries are doubtful fits and often do not repeat.
Potency means the concentration at half of the fitted maximal effect; tags describe the fitted curve by direction and shape.

Experiment: qHTS for Inhibitors of TGF-b; further: nearly all actives have a fitted effect of over 65% in size
Conditions: HepG2 CAGA-GFP TGF-b/SMAD3 reporter, GFP fluorescence, 18 h, TGF-beta stimulated, 500 pg/mL final; series mostly up to 46.1 µM
Procedure, shortened: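 GFP signal (ex488/em500-530) from TGF-beta-stimulated HEPG2 CAGA-GFP cells, 500 pg/mL final, 18 h at 37 degrees C in DMEM plus 1% FBS, normalized to unstimulated and DMSO-stimulated controls.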
With COC(=O)c1ccc(CNC(=O)C23CC4CC(CC(C4)C2)C3)cc1 the Potency was inconclusive: 28.2 µM [inhibitor, single point].
In the case of CCN(c1ccccc1)S(=O)(=O)c1cc(C(=O)Nc2ccccc2Cl)ccc1F, the Potency was inconclusive: 22.4 µM [inhibitor, single point].
For Cc1cc(S(=O)(=O)NCCc2csc(-c3cccc(F)c3)n2)ccc1F, the Potency was inconclusive: 11.2 µM [inhibitor, partial curve, poor fit].
In the case of CCc1ccc(N(C(=O)c2snc(C(N)=O)c2N)C(C(=O)NC2CCCC2)c2ccco2)cc1 (stereo not drawn), the Potency was inconclusive: 35.5 µM [inhibitor, single point].
With CCCC(=O)N1CCN(c2nnc(-c3ccc(C)cc3)c3ccccc23)CC1 the Potency was inconclusive: 35.5 µM [inhibitor, single point].
With CS(=O)(=O)c1ccc2nc(NC(=O)c3cccc(NS(=O)(=O)c4ccc(F)c(F)c4)c3)sc2c1 the Potency was active: 17.8 µM.
For CCOC(=O)c1c(C)n(-c2ccc(C)cc2)c2ccc(O)c(CN(C)C)c12, the Potency was inconclusive: 28.2 µM [inhibitor, single point].
For O=C1CCSC2(C(=O)N(Cc3ccccc3)c3ccccc32)N1c1ccccc1 (stereo not drawn), the Potency was inconclusive: 7.94 µM [inhibitor, partial curve, poor fit].
For Cc1cccc(C)c1NC(=O)c1cc(S(=O)(=O)N2CCC3(CC2)OCCO3)ccc1F, the Potency was “inactive”.
For O=S(=O)(c1ccccc1)N1N=C(c2ccccc2)CC1c1ccccc1F (stereo not drawn), the Potency was “inactive”.
In the case of O=C(NCCCN1CCN(c2ccccc2F)CC1)c1sc2ncccc2c1-n1cccc1, the Potency was inconclusive: 11.2 µM [inhibitor, partial curve].
In the case of CCN(CC)S(=O)(=O)c1ccc2c(c1)c(=O)c(C(=O)N1CCN(c3ccccc3OC)CC1)cn2C, the Potency was “inactive”.
With CC(=O)NC(c1ccc(C)cc1)c1cc(Cl)c2cccnc2c1O (stereo not drawn) the Potency was inconclusive: 3.55 µM [inhibitor, full curve].
In the case of CC(C)CCNC(=O)Cn1cc(S(=O)(=O)Cc2ccc(F)cc2)c2ccccc21, the Potency was inconclusive: 6.31 µM [inhibitor, single point].
For CC(=O)c1ccc(NC(=S)NCCCn2ccnc2)cc1, the Potency was “inactive”.
For CCc1nc2ccc(C(=O)N3CCN(C(=O)c4ccco4)CC3)cn2c1N(C)CCC(C)C, the Potency was inconclusive: 12.6 µM [inhibitor, single point].
With CC(=O)C[C@H](O)CC(=O)[C@@H]1OC(=O)CCCCCCc2ccccc21 the Potency was inconclusive: 15.8 µM [inhibitor, single point].
With Cc1cc(C(C)(C)C)ccc1OC(=O)C1=CC=CN2CCS(=O)(=O)N=C12 the Potency was inconclusive: 0.126 µM [inhibitor, full curve].
